Data from paper PMC6399350, “Heterologous calcium-dependent inactivation of Orai1 by neighboring TRPV1 channels modulates cell migration and wound healing” (Communications Biology, 2019).
Where two headings read alike, the source gives them in different places. These are yes or no findings as the source states them, for the method shown. For some assays here: Binding seen in cells or lysates may run through a third protein. Some binding calls cover weakened binding; strength is not graded here. For some assays here: Where a sequence is shown, tags or fusion partners need not be part of it. Values belong to the molecule of their own block, whether it stands above or below them.

The chains behind the UniProt entries cited, without tags or fusion partners.
UniProt Q96D31: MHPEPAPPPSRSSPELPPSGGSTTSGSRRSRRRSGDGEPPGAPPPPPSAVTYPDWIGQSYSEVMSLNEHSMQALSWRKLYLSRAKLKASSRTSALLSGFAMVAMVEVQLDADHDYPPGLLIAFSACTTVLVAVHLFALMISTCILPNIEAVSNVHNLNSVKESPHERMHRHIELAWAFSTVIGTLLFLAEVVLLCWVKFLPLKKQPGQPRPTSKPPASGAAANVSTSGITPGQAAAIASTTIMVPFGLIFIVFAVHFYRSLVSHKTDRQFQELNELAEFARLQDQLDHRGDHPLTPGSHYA
UniProt Q5M848: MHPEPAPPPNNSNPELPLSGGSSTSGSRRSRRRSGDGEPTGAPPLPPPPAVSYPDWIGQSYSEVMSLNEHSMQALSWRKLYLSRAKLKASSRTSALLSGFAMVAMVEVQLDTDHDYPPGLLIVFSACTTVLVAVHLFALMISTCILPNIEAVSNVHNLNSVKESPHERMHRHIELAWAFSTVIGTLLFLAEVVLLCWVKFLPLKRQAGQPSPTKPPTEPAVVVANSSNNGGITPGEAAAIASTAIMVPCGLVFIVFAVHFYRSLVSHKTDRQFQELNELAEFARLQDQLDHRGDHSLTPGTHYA

Legend:
[1] = biological target: c-Myc-Orai1 (human) (UniProt Q96D31); assay: co-IP; c-Myc-Orai1 and partner overexpressed in HEK293; TNI lysis buffer (0.5% Igepal CA-630, 50 mM Tris pH 7.5, 250 mM NaCl, 1 mM EDTA); supernatant incubated overnight with sepharose beads coupled to anti-c-myc antibody; western blot
[2] = biological target: endogenous Orai1 of cortical astrocytes (rat (endogenous in primary cortical astrocytes)) (UniProt Q5M848); assay: co-IP; endogenous proteins of rat primary cortical astrocytes; TNI lysis buffer; supernatant incubated overnight with sepharose beads coupled to anti-Orai1 antibody; western blot
[3] = biological target: Orai1-YFP (human) (UniProt Q96D31); assay: FRET or BRET; acceptor photobleaching FRET in co-transfected HEK293 cells, CFP fusion as donor and Orai1-YFP as acceptor, confocal microscope
[4] = biological target: c-Myc-Orai1 (human) (UniProt Q96D31); assay: co-IP; c-Myc-Orai1 and partner overexpressed in HEK293; TNI lysis buffer (0.5% Igepal CA-630, 50 mM Tris pH 7.5, 250 mM NaCl, 1 mM EDTA); supernatant incubated overnight with sepharose beads coupled to anti-c-myc antibody; western blot; remark: listed apart in the source
[5] = biological target: Orai1-COOH-DsRed (carboxyl terminus of Orai1 fused to the red fluorescent protein) (human); assay: peptide or protein array; TIRFM microarray; Orai1-COOH-DsRed printed on poly-D-lysine coated glass as bait, ANK domains fused to GFP in solution at 1 uM, 3 min incubation, wash with saline, GFP fluorescence read; both purified

binding [1]: binds
Molecule: TRPV1-YFP (from UniProt O35433-1 1-838)

binding [2]: binds
Molecule: endogenous TRPV1 of cortical astrocytes (from UniProt O35433 1-838)

binding [3]: binds
Molecule: TRPV1-CFP (from UniProt O35433-1 1-838)

binding [4]: binds
B1: ANK2-GFP (second ankyrin domain of rat TRPV1 fused to GFP) (domain or fragment)
chain: TGKTCLLKAMLNLHNGQNDTIALLLDVARKTDSLKQFVNASYTDSYY
notes: ankyrin domain 2 of rat TRPV1, 153-199; source: HEK293, transfected, in lysate (co-IP); HEK293 in suspension, sonicated, immunoprecipitated with anti-GFP antibody (microarray); not shown: enhanced GFP, C-terminal, kept

binding [5]: no binding (tested: 1 μM)
Molecule: VGNTVLHALVEVADNTVDNTKFVTSMYNEILILGAKLHPTLKLEEITNR (domain or fragment) [ANK5-GFP (fifth ankyrin domain of rat TRPV1 fused to GFP)]

binding [4]: binds
B2: ANK3-GFP (third ankyrin domain of rat TRPV1 fused to GFP) (domain or fragment)
chain: KGQTALHIAIERRNMTLVTLLVENGADVQAAANGDFFKKTKGRPGFY
notes: ankyrin domain 3 of rat TRPV1, 200-246; source: HEK293, transfected, in lysate (co-IP); HEK293 in suspension, sonicated, immunoprecipitated with anti-GFP antibody (microarray); not shown: enhanced GFP, C-terminal, kept

binding [4]: binds
B3: ANK1-GFP (first ankyrin domain of rat TRPV1 fused to GFP) (domain or fragment)
chain: RLYDRRSIFDAVAQSNCQELESLLPFLQRSKKRLTDSEFKDPE
notes: ankyrin domain 1 of rat TRPV1, 110-152; source: HEK293, transfected, in lysate (co-IP); HEK293 in suspension, sonicated, immunoprecipitated with anti-GFP antibody (microarray); not shown: enhanced GFP, C-terminal, kept

binding [5]: no binding (tested: 1 μM)
Molecule: KGLTPLALAASSGKIGVLAYILQREIH (domain or fragment) [ANK6-GFP (sixth ankyrin domain of rat TRPV1 fused to GFP)]
